The record followed here is PubChem BioAssay AID1508642 (National Center for Advancing Translational Sciences (NCATS), 2021).

About 200 (0.47%) of roughly 43,000 compounds were called active. Inconclusive results (about 12%) are left out. Calls come from the whole dose curve; as a rule, active = well fitted cell-killing curve with a large enough effect; inconclusive = small, poorly fitted or top-dose-only effect, or effect the other way; inactive = flat fitted curve, though single readings scatter. The list shows a part of the results.
% is set by controls: 0 for no effect and ±100 for the full control effect; potency is the fitted concentration of half-maximal effect.

A short description of this test: Cell viability qHTS assay in S16 Pmp22-F2sN cells. Note: nearly all actives have a fitted effect of over 65% in size. As to conditions: S16 Pmp22-F2sN Schwann cells (luciferase reporters placed in the Pmp22 gene) viability, CellTiter-Glo, 24 h; series mostly up to 57.5 µM; activity change, negative = cytotoxicity: at the top concentration. The gist of the method:
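CellTiter-Glo counter-screen, qHTS, 1536-well. Cells: S16(c9) Pmp22-F2sN, 500-1,000/well in DMEM + 10% FBS. Cpd 23 nL pin transfer, 24 h, 37C/5% CO2. Read: luminescence, CCD imager.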
Regarding `CCn1c(=O)c2sccc2n2c(CCC(=O)N3CCN(c4ccc(C(C)=O)cc4)CC3)nnc12`, the “activity change, negative = cytotoxicity” value was inactive: 10.9%.

For `Cc1ccc(C(=O)Nc2nnc(S(=O)(=O)N3c4ccccc4CC3C)s2)cc1` (stereo not drawn), the “activity change, negative = cytotoxicity” value was inactive: 7.9%.

On to `CCOC(=O)c1ccc(NC(=O)c2c(NCc3cccs3)sc3c2CCCC3)cc1`, for which the “activity change, negative = cytotoxicity” value is inactive: -27%.

Take `Cn1c(=O)n(C)c2cc(N3CCOCC3)c(NC(=O)c3ccccc3Br)cc21`: the “activity change, negative = cytotoxicity” value was inactive: -4.92%.

In the case of `COc1ccc(OC(=O)c2nc(SCc3ccc(F)cc3)ncc2Cl)cc1`, the “activity change, negative = cytotoxicity” value was inactive: 10.9%.

Consider `Cc1ccc(C2=NN(CC(=O)NCCC(C)C)C(=O)CC2)cc1`, for which the “activity change, negative = cytotoxicity” value is inactive: 17.7%.

With `CCOC(=O)c1cc(OC(=O)c2ccc(C)cc2)n(-c2ccccc2)n1`, the “activity change, negative = cytotoxicity” value was inactive: -2.34%.

As for `COc1cccc(-c2nnc(-c3ccccc3NC(=O)c3cccc(C(F)(F)F)c3)o2)c1`, the “activity change, negative = cytotoxicity” value was inactive: 1.08%.

With `COc1ccc(CNC(=O)CN2C(=O)CSc3ccc(S(=O)(=O)N4CCOCC4)cc32)c(OC)c1`, the “activity change, negative = cytotoxicity” value was inactive: -1.36%.

Consider `COc1cccc(CNC(=O)c2cc(S(=O)(=O)N3CCCCC3)cn2C)c1`, for which the “activity change, negative = cytotoxicity” value was inactive: -4.46%.

In the case of `CCOc1ccc(CNC(=O)c2ccc3nc(C(C)C)oc3c2)cc1`, the “activity change, negative = cytotoxicity” value is inactive: -1.62%.

As to `COC(=O)c1ccc(NC(=O)NCCn2nnc3cc(S(=O)(=O)N(C)C)ccc32)cc1`, the “activity change, negative = cytotoxicity” value was inactive: -23.4%.

Turning to `COc1ccc(Nc2cc(C(=O)NC3CCC(C)CC3)c3ccccc3n2)cc1OC` (stereo not drawn), the “activity change, negative = cytotoxicity” value was inactive: 14.4%.

In the case of `Cc1c(C(=O)N2CCCCCC2)c(S(=O)(=O)NCc2ccc(Br)cc2)c(C)n1C`, the “activity change, negative = cytotoxicity” value was inactive: -4.5%.

For `Cc1ccc(-c2nc3ccccn3c2Nc2ccccc2C)s1`, the “activity change, negative = cytotoxicity” value was inactive: -1.48%.

With `Cc1oc2ncnc(N3CCOCC3)c2c1C(=O)N(Cc1ccccc1)C(C)C`, the “activity change, negative = cytotoxicity” value is inactive: 2.2%.

On to `COc1ccc(S(=O)(=O)NCC(c2ccco2)S(=O)(=O)c2cccs2)cc1C` (stereo not drawn), for which the Potency was active: 22.4 µM.

Turning to `Cn1c(=O)c(=O)n(C)c2cc(S(=O)(=O)CCC(=O)Nc3ccc(F)cc3)ccc21`, the “activity change, negative = cytotoxicity” value is inactive: 0.567%.

As for `Cc1ccc(-c2nnn3c2nc(NCCc2ccc(Cl)cc2)c2ccccc23)cc1`, the “activity change, negative = cytotoxicity” value was inactive: 18%.

As to `CCN(C(=O)c1coc(=O)c2ccccc12)c1ccccc1C`, the “activity change, negative = cytotoxicity” value is inactive: 15.3%.

Regarding `CC(C)c1ccc(C(=O)Nc2cc(-c3ccccc3F)nn2-c2ccccc2)cc1`, the “activity change, negative = cytotoxicity” value was inactive: -5.9%.

On to `CCCOc1ccc(CNC(=O)Cn2ncn3c(cc4sc(CC)cc43)c2=O)cc1`, for which the “activity change, negative = cytotoxicity” value is inactive: 13.4%.

Consider `Cc1ccccc1Nc1ncnc2c1cnn2C`, for which the “activity change, negative = cytotoxicity” value is inactive: -17.1%.

Regarding `CCCCN(CC)CCNC(=O)c1cc2c(=O)[nH]c3ccccc3c2n1C`, the “activity change, negative = cytotoxicity” value is inactive: 14.1%.

For the molecule `Cc1ccccc1OCC(=O)Nc1ccc(-c2nc3ncccc3o2)cc1`, the “activity change, negative = cytotoxicity” value is inactive: -1.1%.

Take `CCOc1ccc(CNCc2c(C(=O)O)n(Cc3ccc(C)cc3)c3cc(C)ccc23)cc1`: the “activity change, negative = cytotoxicity” value was inactive: -2.63%.

`Cc1c(Cl)cccc1NC(=O)CN(CCc1ccccc1)S(=O)(=O)c1ccccc1`: the “activity change, negative = cytotoxicity” value is inactive: -1.29%.

In the case of `CCCc1nc2ccccc2n2c(-c3ccccc3)c3c(=O)n(C)c(=O)n(C)c3c12`, the “activity change, negative = cytotoxicity” value was inactive: 8.55%.

In the case of `O=C(NCc1ccc(F)cc1)c1ccc2c(O)c(S(=O)(=O)c3ccccc3)c(=O)[nH]c2c1`, the “activity change, negative = cytotoxicity” value is inactive: 0.886%.

Consider `CCCCn1c(NCc2ccc(OC)cc2O)nc2ccccc21`, for which the “activity change, negative = cytotoxicity” value was inactive: -0.781%.

Regarding `Cc1ccccc1NS(=O)(=O)c1ccc2[nH]cc(C(=O)N3CCCCC3)c(=O)c2c1`, the “activity change, negative = cytotoxicity” value is inactive: 2.61%.

Regarding `COc1ccc(C)cc1-n1nnc(-c2nc(-c3ccccc3Cl)no2)c1N`, the “activity change, negative = cytotoxicity” value is inactive: -22.2%.

Regarding `CCCCn1nc(NC(=O)c2cccc(Cl)c2)c2cc3ccccc3nc21`, the “activity change, negative = cytotoxicity” value was inactive: 12.2%.

Regarding `COc1ccc(N2CC(NC(=O)CCCc3ccccc3)CC2=O)cc1` (stereo not drawn), the “activity change, negative = cytotoxicity” value was inactive: -11.6%.

As for `COC(=O)c1ccccc1NC(=O)Nc1nnc(N2CCC(C)CC2)s1`, the “activity change, negative = cytotoxicity” value was inactive: -1%.

Regarding `CCOc1cc(CNC(=O)NC2COc3ccc(OC)cc3C2)cc(OCC)c1OCC` (stereo not drawn), the “activity change, negative = cytotoxicity” value is inactive: 4.07%.

`Cc1ccc(C(=O)Nc2ccc(-c3nc4ccccc4s3)cc2C)cc1C`: the “activity change, negative = cytotoxicity” value is inactive: -4.35%.

As for `Cc1csc2nc(COc3ccccc3NC(=O)c3ccc(C(C)(C)C)cc3)cc(=O)n12`, the “activity change, negative = cytotoxicity” value was inactive: 24.1%.

Take `CCNC(=O)c1nn(-c2ccccc2C)nc1CO`: the “activity change, negative = cytotoxicity” value was inactive: -3.84%.

Take `Cc1cccc(CNC(=O)CCCn2c(=O)c3cccn3c3ccc(F)cc32)c1`: the “activity change, negative = cytotoxicity” value was inactive: -13.3%.

`Cc1cccc2c1-c1sc(C(=O)N(C)c3cccc(C(F)(F)F)c3)cc1CO2`: the “activity change, negative = cytotoxicity” value is inactive: -14%.

Consider `Cc1ccccc1OC(=O)CSc1nnc(-c2ccc(F)cc2)o1`, for which the “activity change, negative = cytotoxicity” value was inactive: 8.48%.

Turning to `Cc1c(NC(=O)c2nc3ccccc3nc2N2CCCCC2)cccc1[N+](=O)[O-]`, the “activity change, negative = cytotoxicity” value was inactive: 0.16%.

As to `O=C(Cn1c(=O)n(-c2ccccc2Cl)c(=O)c2sc3ccccc3c21)NC1CCCCC1`, the “activity change, negative = cytotoxicity” value was inactive: 3.5%.

As to `Cc1ccc(CN2CCN(CC(=O)Nc3ccc(C)c(C)c3)S2(=O)=O)cc1`, the “activity change, negative = cytotoxicity” value is inactive: -0.136%.

With `Cc1ccccc1-n1nc(CO)c(C(=O)NCc2cccs2)n1`, the “activity change, negative = cytotoxicity” value is inactive: 3.57%.

Take `N#Cc1cccc(NC(=O)C2CCN(S(=O)(=O)c3ccc4[nH]c(=O)ccc4c3)CC2)c1`: the “activity change, negative = cytotoxicity” value was inactive: 4.26%.

For the molecule `CCOC(=O)C1CCN(C(=O)c2ccc3c(=O)n4nc(Nc5cc(C)ccc5C)sc4nc3c2)CC1`, the “activity change, negative = cytotoxicity” value is inactive: -0.241%.
